# About 14,000 (4.5%) of roughly 310,000 compounds showed an effect of 50% or more. The effect is printed as a negative number. The list shows a part of the results.
# Biological target: human ether-à-go-go-related gene (hERG) potassium channel (human, UniProt Q12809)
# Experiment: primary screen, population patch clamp on CHO cells stably expressing hERG
# 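Note: peak tail current of the secondary pulse compared with the same well before compound.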
# human ether-à-go-go-related gene (hERG) potassium channel, sequence (Q12809 whole entry, looked up): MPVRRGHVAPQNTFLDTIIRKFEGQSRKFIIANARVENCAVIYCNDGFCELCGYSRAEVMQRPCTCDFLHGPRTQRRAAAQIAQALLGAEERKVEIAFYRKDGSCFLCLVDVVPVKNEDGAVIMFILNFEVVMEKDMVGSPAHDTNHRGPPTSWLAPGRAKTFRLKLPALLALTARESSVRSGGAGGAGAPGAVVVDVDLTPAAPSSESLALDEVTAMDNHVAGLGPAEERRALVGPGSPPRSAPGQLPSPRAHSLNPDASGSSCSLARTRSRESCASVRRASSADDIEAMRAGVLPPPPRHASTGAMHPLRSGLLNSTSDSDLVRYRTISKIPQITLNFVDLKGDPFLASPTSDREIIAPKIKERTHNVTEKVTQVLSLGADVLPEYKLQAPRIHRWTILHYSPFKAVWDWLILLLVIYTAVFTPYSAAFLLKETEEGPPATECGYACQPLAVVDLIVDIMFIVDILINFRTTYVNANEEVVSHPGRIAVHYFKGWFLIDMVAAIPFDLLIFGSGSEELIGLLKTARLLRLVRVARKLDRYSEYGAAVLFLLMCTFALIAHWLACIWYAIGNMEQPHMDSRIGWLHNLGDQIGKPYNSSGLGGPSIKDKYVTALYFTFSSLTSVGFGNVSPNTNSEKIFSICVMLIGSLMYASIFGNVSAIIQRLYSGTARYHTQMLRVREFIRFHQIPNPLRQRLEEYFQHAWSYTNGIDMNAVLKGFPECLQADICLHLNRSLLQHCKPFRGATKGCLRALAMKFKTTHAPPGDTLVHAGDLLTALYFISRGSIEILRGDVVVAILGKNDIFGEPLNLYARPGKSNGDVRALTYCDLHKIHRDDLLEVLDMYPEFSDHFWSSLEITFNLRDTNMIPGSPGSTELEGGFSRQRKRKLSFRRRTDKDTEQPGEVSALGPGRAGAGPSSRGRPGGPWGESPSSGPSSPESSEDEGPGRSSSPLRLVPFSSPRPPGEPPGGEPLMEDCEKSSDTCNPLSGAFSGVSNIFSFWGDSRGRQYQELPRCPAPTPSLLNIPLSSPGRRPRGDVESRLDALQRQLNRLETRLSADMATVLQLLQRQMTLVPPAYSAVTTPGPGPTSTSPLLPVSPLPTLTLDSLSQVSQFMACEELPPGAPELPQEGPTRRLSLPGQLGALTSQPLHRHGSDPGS
row,SMILES,"hERG current change (%, negative = inhibition) at 10uM"
1,COc1ccc(Cl)cc1NC(=O)CN(C)C(=O)c1cn2ccccc2n1,-13.6%
2,COCCn1c(=NC(=O)CSCC(=O)N2CCOCC2)sc2ccccc21,4.59%
3,N#Cc1ccc(CSc2nnc(NC(=O)C3CCCO3)s2)cc1 (centres unmarked),-27%
4,CCOc1ccc(C(=O)N2CCN(c3ncccn3)CC2)cc1,-9.8%
5,O=C(COc1cc2oc(=O)c3c(c2cc1Cl)CCC3)Nc1ccc(CN2CCOCC2)cc1,18.5%
6,O=C(Nc1ncnc2sc3c(c12)CCC3)c1ccco1,-4.5%
7,CCOC(=O)C1(CCc2ccccc2)CCN(C(=O)c2cccc(C)n2)CC1,-11.4%
8,Cc1cccc(C)c1N1C(=O)c2ccccc2C1=O,-5.63%
9,O=C(N/N=C/c1ccc(Cl)s1)C(O)c1ccccc1 (centres unmarked),5.02%
10,COc1ccccc1/C=C/C=N/n1c(COc2ccccc2)n[nH]c1=S,15.4%
11,CCOC(=O)Cn1ccc(NC(=O)COc2ccc(F)cc2)n1,-0.732%
12,Clc1ccc2nsnc2c1[NH2+]C1=NCCN1.[Cl-],12.4%
13,Cc1cc(C(=O)CN2C(=O)c3ccccc3S2(=O)=O)c(C)n1-c1ccccc1,3.57%
14,CN(C)C(=O)N1CCN(S(=O)(=O)c2ccc3ccccc3c2)CC1,1.65%
15,O=C(OC1Cn2c(=O)ccc(=O)n2C1)c1ccccc1,11.3%
16,CN(C)Cc1c(C(=O)N/N=C/c2ccoc2)nnn1-c1nonc1N,-26.6%
17,CCN=C1SC(CC(=O)Nc2ccc3c(c2)OCO3)C(=O)N1CC (centres unmarked),-3.33%
18,COCCNc1nc(N2CCCCC2)c2cnn(C)c2n1,1.81%
19,COC(=O)c1ccc(OC(=O)c2nn(C)cc2Cl)c(OC)c1,15.1%
20,COC(=O)C1=C(C)NC(=O)C1(NC(=O)CN1CCCC1=O)C(F)(F)F (centres unmarked),0.102%
21,O=C(O)C(=O)O.O=[N+]([O-])c1cc2c(cc1CNCCc1ccc3c(c1)OCO3)OCO2,-61.5%
22,CCOC(=O)C1(Cc2ccc(O)cc2)NC(c2ccccc2F)C2C(=O)N(C)C(=O)C21 (centres unmarked),-2.04%
23,O=C(CCc1nnc(Cc2ccc(-c3ccccc3)cc2)o1)NCCc1ccccn1,-31.8%

row,SMILES,"hERG current change (%, negative = inhibition) at 10uM"
1,Cc1[nH]c(=S)[nH]c(=O)c1CCOc1ccccc1,14.2%
2,Cc1ccc(NC(=S)N(Cc2ccc(Cl)cc2)Cc2ccc(C(=O)O)cc2)cc1Cl,7.34%
3,Cc1cc2c(N=NC(=O)CCc3ccccc3)c(O)[nH]c2cc1Br,-0.616%
4,CCOc1ccc(C(C(=O)NCCOC)N(CCOC)C(=O)CCC(=O)Nc2ccccn2)cc1 (centres unmarked),4.6%
5,O=C(c1cc(-c2cccc(O)c2)on1)N1CCCC1,8.4%
6,CC(C)C(=O)N1CCN(c2ccc([N+](=O)[O-])c(NC(C)c3ccccc3)c2)CC1 (centres unmarked),-11.7%
7,NC(=O)c1cc2ccccc2o/c1=N/NC(=O)c1cccc(Cl)c1,-22.9%
8,CCOCCCNC(=O)CN1CCN(Cc2ccccc2C)C1=O,-5.69%
9,COc1ccc(-n2c(Cc3cc(=O)[nH]c(=O)[nH]3)nnc2SCC(=O)Nc2ccccc2)cc1,1.2%
10,O=C(CCC(=O)N1CCSc2ccccc21)Nc1cccc(F)c1,-28.3%
11,CCOC(=O)CSc1nc2cc(C(=O)N3CCC(C(N)=O)CC3)ccc2c(=O)n1C1CCCCC1,-10.7%
12,Cc1ccccc1CSc1nnnn1-c1ccc(C(N)=O)cc1,14.7%
13,CSCCC(NS(=O)(=O)c1ccc(Cl)c(Cl)c1)C(=O)O (centres unmarked),12.3%
14,CCN(CC)S(=O)(=O)c1ccc(C(=O)OCC(=O)c2ccc3c(c2)NC(=O)CO3)cc1,-12.6%
15,CC(C)CCNC(=O)CN(C(=O)CCC(=O)Nc1ccccn1)c1ccc2c(c1)OCCO2,0.242%
16,COC(=O)c1c(NC(=O)c2ccc(S(=O)(=O)N3CCOCC3)cc2)sc2c1CCN(C(C)C)C2,-15.3%
17,Cc1cnc(NC(=O)C2(c3ccccc3)CC2)s1,7.07%
18,COC(=O)CN(C)C(=O)c1cccc(OC2CCN(S(=O)(=O)N(C)C)CC2)c1,13.1%
19,CC(C)C(=O)Nc1ncc2c(n1)CC(c1cccs1)CC2=O (centres unmarked),-17.3%
20,CC(OC(=O)c1cc(Br)ccc1O)C(=O)Nc1ccc(S(=O)(=O)N2CCCC2)cc1 (centres unmarked),17.9%
21,O=C(O)c1ccc(N/N=C/c2ccc(-c3ccccc3Cl)o2)cc1,22.3%
22,Cc1ccc(S(=O)(=O)N2CCC(C(=O)OCC(=O)N3CC(C)CC(C)C3)CC2)cc1C (centres unmarked),6.97%
23,COC(=O)c1cnc(Oc2ccc(NC(=O)NC(=O)c3c(F)cccc3Cl)cc2)cc1C(F)(F)F,10.4%

row,SMILES,"hERG current change (%, negative = inhibition) at 10uM"
1,C/C(=N\NC(=O)c1ccc(NS(=O)(=O)c2cccs2)cc1)c1ccncc1,4.24%
2,COC(=O)c1c(-c2ccccc2)csc1NC(=O)C1CC=CCC1C(=O)O (centres unmarked),4.11%
3,COc1ccccc1CN1C[C@@H]2C[C@@H](c3cccc(C)c3)N3CCC[C@@]23C1=O,-37%
4,C=CCNC(=O)c1ccc(-c2cccc([N+](=O)[O-])c2)o1,-9.81%
5,CCCSc1nc(N)c2c3c(sc2n1)CN(C)CC3,-37.1%
6,O=C(N/N=C/c1ccco1)c1ccc(Br)o1,11.5%
7,Cc1cccc(NC(=O)/C(C#N)=C\c2cccnc2)c1,-19.2%
8,COc1ccc(-c2noc(CCC(=O)NC3CCCCC3)n2)cc1OC,19.5%
9,CC(NC(=O)NC(=O)c1cccc(Cl)c1)c1ccccc1 (centres unmarked),19.2%
10,O=C(NCC(c1ccco1)N1CCc2ccccc2C1)c1ccc([N+](=O)[O-])cc1 (centres unmarked),-58.1%
11,CCc1sc(NC(=O)CCC(=O)O)nc1-c1cc2ccccc2oc1=O,27.9%
12,c1csc(Cc2nn3c(-c4ccncc4)nnc3s2)c1,-28.3%
13,CC(=O)c1ccc(NC2CC(O)C(O)CO2)cc1 (centres unmarked),7.81%
14,CCCCn1c(-c2sccc2C)n[nH]c1=S,18.4%
15,Cc1cc([N+](=O)[O-])nn1CC(=O)N1CCc2ccccc2C1,-15%
16,O=C(CCNc1cc(Cl)cc(Cl)c1)c1cccs1,17.4%
17,Cc1ccccc1NC(=S)N1CCN(c2ccccc2)CC1,20.6%
18,CC1CC(C)CN(c2cc(N(C)CCO)c([N+](=O)[O-])c3nonc23)C1 (centres unmarked),-11.3%
19,S=C(NCCC1=CCCCC1)Nc1ccc(Cl)cc1,4.77%
20,COc1cccc(C2CC(=O)Nc3c2c(=O)[nH]c2ncnn32)c1 (centres unmarked),20.6%
21,CC(C)NC[C@@H](O)c1ccc(O)c(O)c1.O=C(O)C(O)C(O)C(=O)O,16.7%
22,Cc1sc2nc3n(c(=O)c2c1C)CCCS3,-8.05%
23,O=C(N1CCCC1)n1c(Cc2ccccc2)nc2ccccc21,-10.2%

row,SMILES,"hERG current change (%, negative = inhibition) at 10uM"
1,CCOc1ccc(Br)cc1S(=O)(=O)Nc1ccc(C(=O)Nc2ccccc2OC)cc1,-0.331%
2,Cn1c(C(=O)NN)cc2cc(OCc3ccccc3)ccc21,13.3%
3,CCN(CC(=O)Nc1c(F)cccc1F)C(=O)Cc1ccccc1,-1.53%
4,COc1ccc(CCNC(=O)c2nonc2N)cc1OC,2.17%
5,CSc1ccc(C(=S)N2CCN(Cc3ccccc3)CC2)cc1,-50.4%
6,CCOc1ccccc1Nc1nnc(SCC(=O)Nc2cc(C)on2)s1,6.14%
7,COc1ccc(CCNC(=O)CNCC2CCCCC2)cc1OC.O=C(O)C(=O)O,29.1%
8,CCCCNC(=O)C1CCN(Cc2ccc(OCc3ccccc3)cc2)CC1.O=C(O)C(=O)O,-71.7%
9,CCCc1nnc(NC(=O)c2nc(S(=O)(=O)Cc3ccc(C)cc3)ncc2Cl)s1,-9.73%
10,OCc1nn2c(c1Br)NC(c1ccccc1)CC2C(F)(F)F (centres unmarked),-9.56%
11,CS(=O)(=O)N(CC(=O)NCCC1=CCCCC1)c1ccc2c(c1)OCO2,-2.28%
12,CCOC(=O)c1nc(C)sc1-c1ccnn1S(=O)(=O)c1ccccc1C(F)(F)F,-25.1%
13,COc1ccccc1C(=O)NCCC(=O)NCC(c1ccco1)N1CCCCC1 (centres unmarked),3.37%
14,CCC1CCC(N2CCN(c3ccccc3F)CC2)CC1 (centres unmarked),-22.2%
15,Cc1cc(C)n(-c2nnc(Cl)c3ccccc23)n1,24.2%
16,CN(C(=O)COC(=O)c1ccccc1C(=O)N(C)c1ccccc1)c1ccccc1,-8.82%
17,CCO[C@@H]1OC(C(=O)N2CCN(Cc3ccccc3)CC2)=C[C@H](c2cn(C(C)=O)c3ccccc23)[C@H]1CCCO,-37.9%
18,N#C[C@H]1C(O)C(O)c2ccccc2N1C(=O)c1ccccc1 (some centres unmarked),7.24%
19,CCCCNC(=O)C1CC(=O)N(CCC(C)C)C1 (centres unmarked),9.55%
20,COc1cccc(NC(=O)CSC2=C(C#N)C(c3ccco3)C3=C(CCCC3=O)N2)c1 (centres unmarked),-11.9%
